Measured values from PubChem BioAssay AID686970 (National Center for Advancing Translational Sciences (NCATS), 2013).
The campaign covered roughly 360,000 compounds. About 6,000 (1.7%) were called active. This list was built around the results that the source calls inconclusive (neither active nor inactive); the mix of calls is not that of the screen. The call rests on the fitted dose curve; in most records, active means well fitted cell-killing curve with a large enough effect; inconclusive means small, poorly fitted or top-dose-only effect, or effect the other way; inactive means flat fitted curve, though single readings scatter. No potency is given beside an inconclusive call; the fits are too rough.

Test: qHTS for induction of synthetic lethality in tumor cells producing 2HG: qHTS for the HT-1080-NT fibrosarcoma cell line;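 further: NT is the 2HG producing partner of a matched IDH1 knockdown line; nearly all actives have a fitted effect of over 55% in size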;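 on activity, negative = less viability: 0% = DMSO-treated cells and -100% = media-only wells without cells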
Settings: HT-1080-NT fibrosarcoma viability, CellTiter-Glo ATP luminescence, 48 h; activity, negative = less viability: at 46.1 µM (top of the series) unless noted
Summary of the method: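 Compounds were tested in concentration-response format on HT-1080-NT cells for 48 hours at 37 degrees C. Cell viability came from CellTiter-Glo luminescence; curves were classified by r2, response magnitude and activity.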
Potency means the concentration at half of the fitted maximal effect; tags describe the fitted curve by direction and shape.

Row | Structure (SMILES) | Potency | activity, negative = less viability
1 | Cc1ccc(S(=O)(=O)Nc2ccc3ccccc3c2[N+](=O)[O-])cc1 | inconclusive [cytotoxic, single point] | –
2 | Cc1cccc(C(=O)NNC(=O)c2c(O)c3ccccc3n(C)c2=O)c1 | inconclusive [cytotoxic, single point] | –
3 | CC(C)N(C(C)C)S(=O)(=O)c1ccc(NN)nc1 | – | inconclusive: -30.1% [cytotoxic]
4 | CCOC(=O)c1c(C)n(-c2ccccc2)c2ccc(O)c(CN(C)C)c12 | inconclusive [cytotoxic, partial curve] | –
5 | O=C(Nc1ccc2c(c1)OCO2)c1cc(-c2ccc(O)cc2)on1 | active: 2.06 µM | –
6 | CC(C)C[C@@H](CN1CCC[C@@H]1CN1C(=S)NC[C@@H]1Cc1ccccc1)N1C[C@H](Cc2ccc(O)cc2)N(CCc2ccccc2)C1=S | inconclusive [cytotoxic, single point] | –
7 | CC1(Cc2ccc3c(c2)OCO3)C(=O)Nc2ccc(-c3cccc(C(F)(F)F)c3)cc21 (centres undefined) | inconclusive [cytotoxic, single point] | –
8 | CCC1(C)Cc2c(sc3nc(SC)[nH]c(=S)c23)CO1 (centres undefined) | inconclusive [cytotoxic, partial curve, poor fit] | –
9 | O=C(c1cc(COc2cccc(C(F)(F)F)c2)on1)N1CCC(Oc2cccnc2)CC1 | – | inactive: -3.35%
10 | CCOc1c2ccoc2nc2c(OC)c(OC)ccc12 | inconclusive [rising, single point] | –
11 | C=CCN=C1S/C(=C/c2cccc([N+](=O)[O-])c2)C(=O)N1CC=C | inconclusive [cytotoxic, single point] | –
12 | O=C(Nc1cc(S(=O)(=O)Nc2ccccc2Cl)ccc1O)c1ccc(F)cc1F | inconclusive [cytotoxic, single point] | –
13 | Nc1cc2nc3ccccc3oc-2cc1=O | inconclusive [cytotoxic, partial curve] | –
14 | COc1ccc(OC)c(/C=C/c2ccnc3ccccc23)c1 | inconclusive [cytotoxic, single point] | –
15 | Cc1ccc(NC(=O)Cn2c(O)c(N=NC(N)=S)c3ccccc32)cc1 | inconclusive [cytotoxic, partial curve, poor fit] | –
16 | COc1ccc(-c2cc(=O)oc3cc(OC(C)C(=O)Nc4ccc(CN5CCOCC5)cc4)ccc23)cc1 (centres undefined) | inconclusive [cytotoxic, single point] | –
17 | CN(c1ncc(C(F)(F)F)cc1Cl)N1C(=O)c2cccc([N+](=O)[O-])c2C1=O | – | inactive: 13.3%
18 | C[C@H]1CN([C@@H](C)CO)S(=O)(=O)c2ccc(C#CC(C)(C)O)cc2O[C@H]1CN(C)Cc1ccccc1 | – | inactive: -13.1%
19 | Cc1cc(Cl)ccc1NC(=O)CSc1n[nH]c(N)n1 | – | inactive: 6.31%
20 | Cc1cccc(-c2nc(NCCCN3CCOCC3)c3ccccc3n2)c1 | inconclusive [cytotoxic, partial curve] | –
21 | Cc1cc(C(F)(F)F)nc2c(Cl)c(C(C)(C)C)nn12 | – | inconclusive: -1.88% [cytotoxic]
22 | CCc1nc2c(OCc3ccc(Cl)cc3)cccn2c1N(C=O)Cc1ccccc1 | active: 23.1 µM | –
23 | CCSc1nc2ccccc2n1C(=O)/C=C/c1ccc(OC)c(OC)c1 | active: 8.2 µM | –

Row | Structure (SMILES) | Potency | activity, negative = less viability
24 | CCOc1ccc(CCN2C(=S)N([C@@H](Cc3ccc(O)cc3)CN3CCC[C@@H]3CN3C(=S)NC[C@@H]3Cc3ccccc3)C[C@@H]2Cc2ccc(O)cc2)cc1 | inconclusive [cytotoxic, full curve] | –
25 | Cc1ccc(S(=O)(=O)c2ccc(Oc3cccc(C)c3)cc2)cc1 | – | inactive: -9.76%
26 | COc1ccc(-c2coc3c(C(=O)NCc4ccc(OC)c(OC)c4)cccc23)c(C)c1 | inconclusive [cytotoxic, full curve] | –
27 | COC(=O)c1c(NC(NC(C)=O)C(Cl)(Cl)Cl)sc2c1CCCC2 (centres undefined) | – | inactive: -16.9%
28 | CCCn1c(Sc2nnnn2-c2ccccc2)n[nH]c1=O | – | inactive: 16%
29 | Cc1ccc(C(=O)c2cc([N+](=O)[O-])ccc2N2CCOCC2)cc1 | active: 5.17 µM | –
30 | COCc1cc(C)nc(SCC(=O)Nc2ccc(N3CCOCC3)cc2)c1C#N | – | inactive: 9.49%
31 | COC(=O)C1(Cc2cc(-c3ccc(Cl)cc3)no2)CCN(C(=O)OC(C)(C)C)CC1 | inconclusive [cytotoxic, partial curve] | –
32 | CSc1cccc(NC(=O)Nc2ccccc2C(N)=O)c1 | – | inactive: -5.14%
33 | CC1Cc2ccccc2N1C(=O)CN1CCC(n2nnc3cc(C(F)(F)F)ccc32)CC1 (centres undefined) | – | inactive: -27.8%
34 | CCc1ccc2[nH]c(=O)c(C3C(C#N)=C(N)Oc4c3ccc3cccnc43)cc2c1 (centres undefined) | inconclusive [cytotoxic, single point] | –
35 | CCOC(=O)C1=C(C)OC(N)=C(C#N)C1c1ccsc1 (centres undefined) | – | inconclusive: 14.5%
36 | COc1ccccc1NS(=O)(=O)c1cccc(NC(=O)c2cncc(Br)c2)c1 | inconclusive [cytotoxic, single point] | –
37 | O=C(Cn1nnc(-c2ccccc2NC(=O)c2ccco2)n1)Nc1ccccc1 | inconclusive [cytotoxic, partial curve] | –
38 | CC(C)CN(CCNC(=O)CN1N=C(c2ccc(Cl)cc2)CCC1=O)CC(C)C | – | inactive: 4.41%
39 | O=C(NCC1CCN(Cc2cccc(Cl)c2)CC1)Nc1ccc(Cl)cc1 | inconclusive [cytotoxic, single point] | –
40 | CCCCCc1nnc(NC(=O)NS(=O)(=O)c2ccc(C)cc2)s1 | – | inactive: 5.86%
41 | Cc1cccnc1C(NC(=O)C1CCN(CCCOc2ccc(F)cc2)CC1)c1ccccc1 (centres undefined) | inconclusive [cytotoxic, single point] | –
42 | Cc1nccc(-c2cc(-c3ccc(Cl)cc3Cl)no2)n1 | – | inactive: 13.3%
43 | Cc1ccc2c(CC(=O)NCC3(N4CCOCC4)CCCCC3)coc2c1C | – | inactive: -4.51% [at 9.24 µM]
44 | COc1ccccc1N1CCN(C(=O)C2c3ccccc3Oc3ccccc32)CC1 | active: 4.11 µM | –
45 | COc1ccc(NC(=O)Cn2nnc(C(=O)NCc3cccs3)c2N)cc1Cl | inconclusive [cytotoxic, single point] | –
46 | NS(=O)(=O)c1ccc(N=Nc2ccc(O)c3ncccc23)cc1 | inconclusive [cytotoxic, partial curve] | –

Row | Structure (SMILES) | Potency | activity, negative = less viability
47 | CNc1cnc(-c2ccc(C(=O)N3CCOCC3)cc2)cn1 | – | inconclusive: -2.17%
48 | Cc1ccc(O)c(Sc2cc(C)ccc2O)c1 | inconclusive [cytotoxic, partial curve] | –
49 | O=C(c1c(Cl)nc2sccn12)N1CCN(c2cccc(Cl)c2)CC1 | inconclusive [cytotoxic, full curve] | –
50 | COc1ccc(Cn2c(SCC#N)nc3ccc(N4CCOCC4)cc3c2=O)cc1 | – | inactive: -19.6%
51 | CC1(Cc2ccc(OC(F)(F)F)cc2)C(=O)Nc2ccc(OC(F)(F)F)cc21 (centres undefined) | inconclusive [cytotoxic, single point] | –
52 | Cc1sc2ncnc(Sc3nnnn3-c3ccc(Cl)cc3)c2c1C | inconclusive [cytotoxic, single point] | –
53 | OC(c1cccc(Cl)c1)c1nc(-c2ccc3c(c2)OCO3)cs1 (centres undefined) | – | inactive: -25.8%
54 | COc1ccc(NC(=O)c2ccc(C)o2)c([N+](=O)[O-])c1 | inconclusive [cytotoxic, single point] | –
55 | CC1(C(=O)Nc2cccc(C#N)c2)CCN1C(=O)Cc1ccc(-c2ccccc2)cc1 (centres undefined) | inconclusive [cytotoxic, partial curve, poor fit] | –
56 | Cc1nonc1C(=O)N/N=C/c1ccc(O)cc1O | inconclusive [cytotoxic, partial curve] | –
57 | Cc1c(Cl)cccc1NC(=S)NCCc1ccc(C(F)(F)F)cc1 | inconclusive [cytotoxic, single point] | –
58 | CN1CCC(=C2c3ccccc3C=Cc3ccccc32)CC1 | inconclusive [rising, single point] | –
59 | O=C(NCCCN1CCCC1)c1ccc2c(c1)N(Cc1ccccc1)CCS2 | inconclusive [cytotoxic, partial curve] | –
60 | Cc1onc(-c2c(Cl)cccc2Cl)c1C(=O)Nc1nc(C(C)(C)C)cs1 | inconclusive [cytotoxic, partial curve] | –
61 | O=C(NCCCN1CCOCC1)c1cc(-c2ccc(Br)cc2)nc2ccccc12 | – | inactive: -15%
62 | O=C(CCS(=O)(=O)c1cccc2nonc12)N1CCOCC1 | inconclusive [rising, single point] | –
63 | Cc1ccc(NC(=O)COc2ccc(CCO)cc2-n2nc3ccccc3n2)cc1C | inconclusive [cytotoxic, single point] | –
64 | CN(C(=O)c1cccc(Nc2ccc(-c3ccc4c(c3)OCCO4)nn2)c1)C1CCCCC1 | inconclusive [cytotoxic, partial curve] | –
65 | Cc1cc(O)cc2c1C1CCC3(C)C(=O)CCC3C1C=C2 (centres undefined) | – | inactive: -4.2%
66 | CCCCCCC(=O)N1CCCC(c2nc(-c3cccc(OC)c3)no2)C1 (centres undefined) | – | inactive: -5.87%
67 | COc1ccccc1-c1cc(NC=O)c2ncc(-c3cccc(C(=O)N(C)C)c3)n2c1 | inconclusive [cytotoxic, partial curve] | –
68 | NC(c1ccccc1)c1csc(NC(=O)NCCc2ccccc2)n1 (centres undefined) | inconclusive [cytotoxic, single point] | –
69 | O=C1NC[C@H](c2ccccc2)OC(=O)[C@H](Cc2ccc(F)cc2)C/C=C\C[C@H]1CC(=O)N(CCO)Cc1ccccc1 | inconclusive [cytotoxic, partial curve] | –
